Measurements as given in the supplement of paper PMC12217912.
Some of the results follow. Sequences were assembled here from the parent chain. Values near 0.05 are background.

B1: TEV protease; numbered along this chain (parent)
chain: MGESLFKGPRDYNPISSSICHLTNESDGHTTSLYGIGFGPFIITNKHLFRRNNGTLVVQSLHGVFKVKDTTTLQQHLVDGRDMIIIRMPKDFPPFPQKLKFREPQREERICLVTTNFQTKSMSSMVSDTSCTFPSGDGIFWKHWIQTKDGQCGSPLVSTRDGFIVGIHSASNFTNTNNYFTSVPKNFMELLTNQEAQQWVSGWRLNADSVLWGGHKVFMVKPEEPFQPVKEATQL

Variants of: B1
Assay: raw area under fraction-flipped curve 0-4 h after induction (AUC4h, not background-subtracted), DNA-recorder readout of cleavage of the substrate (dimensionless); higher = more cleavage of the substrate by the protease variant
Settings: temperature: 34 °C; time window: 0-4 h after rhamnose induction
Procedure: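 In vivo DNA recorder in E. coli TOP10(DE3) ΔrhaA at 34 °C. Each TEVp single-site mutant (parent TEVp 0) is paired with a single-site variant of the 7-mer TEVs (canonical ENLYFQ|S). The substrate sits between flexible linkers in a Bxb1-sfGFP-TEVs-SsrA fusion, so cleavage stabilises Bxb1 and speeds flipping of a recombination array, read by NGS. The value is the raw area under the fraction-flipped curve over 0-4 h after rhamnose induction (AUC4h), with ≥20 reads per time point. It is not background-subtracted; inactive controls average about 0.047.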
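Note: Bxb1 expression induced with 0.2% (w/v) L-rhamnose at OD600 near 0.5, cultures sampled hourly, flipped fraction per protease–substrate barcode pair counted by paired-end Illumina sequencing.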

Variant | area with substrate ENLYFQC | area with substrate ENLYFQD | area with substrate ENLYFQH | area with substrate ENLYFQI | area with substrate ENLYFQK | area with substrate ENLYFQL | area with substrate ENLYFQM | area with substrate ENLYFQN | area with substrate ENLYFQP | area with substrate ENLYFQR | area with substrate ENLYFQS | area with substrate ENLYFQT | area with substrate ENLYFQV | area with substrate ENLYFQW | area with substrate ENLYFQY | area with substrate ENLYFQA | area with substrate ENLYFQG | area with substrate ENLYFQF | area with substrate ENLYFQE | area with substrate ENLYFQQ
N45L | 0.0595 | 0.0468 | 0.0592 | 0.0553 | 0.0613 | 0.0672 | 0.0575 | 0.0606 | 0.0594 | 0.0686 | 0.0598 | 0.0514 | 0.0807 | 0.0528 | 0.0436 |  |  |  |  | 
Q234G | 0.13 | 0.061 | 0.0914 | 0.0615 |  | 0.0609 | 0.1 |  | 0.0583 | 0.0545 | 0.106 | 0.0617 |  | 0.101 |  | 0.108 | 0.087 |  |  | 
E231W | 0.073 | 0.0489 | 0.0689 | 0.0616 | 0.0645 | 0.0573 | 0.0745 | 0.0792 |  | 0.054 | 0.0878 | 0.0663 |  | 0.0667 | 0.0617 | 0.0738 | 0.105 | 0.0612 |  | 
E223Q |  |  |  | 0.059 | 0.0683 | 0.0773 | 0.104 |  |  |  | 0.104 | 0.0628 |  |  |  | 0.0813 |  |  | 0.0525 | 
P9Q | 0.136 |  | 0.0796 | 0.0654 | 0.126 |  |  | 0.0816 |  | 0.0596 | 0.117 |  | 0.0811 | 0.0618 |  |  | 0.0862 | 0.111 |  | 
G214C |  |  |  |  | 0.0707 |  |  | 0.0617 |  |  | 0.0998 |  |  |  |  | 0.0817 |  |  | 0.0495 | 
S16K | 0.141 | 0.0584 | 0.0904 | 0.0594 | 0.0568 | 0.046 | 0.0773 |  | 0.0535 | 0.0422 | 0.119 |  | 0.0574 |  | 0.0888 |  |  |  |  | 
A232Y | 0.106 |  |  | 0.04 | 0.0525 | 0.058 |  | 0.0799 |  | 0.0616 | 0.105 | 0.0708 | 0.0833 |  | 0.113 | 0.103 |  |  |  | 
A232R | 0.114 |  | 0.0913 |  |  |  |  | 0.0841 |  | 0.0677 | 0.104 | 0.0654 | 0.0667 | 0.0678 | 0.0839 | 0.111 | 0.14 |  | 0.0701 | 0.0643
A232L |  | 0.0707 |  |  | 0.067 |  | 0.0868 |  | 0.0789 | 0.0548 | 0.0977 | 0.0719 |  |  | 0.0754 | 0.0921 | 0.0924 |  |  | 0.0744
L235H | 0.0967 |  | 0.0759 | 0.0614 | 0.0611 | 0.127 |  | 0.0886 | 0.0514 |  | 0.109 | 0.0545 |  |  |  | 0.094 |  | 0.0825 |  | 
T31Q | 0.0796 |  |  | 0.051 |  | 0.0606 | 0.0851 |  |  | 0.0551 | 0.101 |  |  |  |  |  | 0.0795 | 0.0598 |  | 
M219A | 0.117 |  | 0.0767 | 0.0489 |  | 0.0613 | 0.0508 |  | 0.0265 | 0.068 | 0.0967 | 0.0489 | 0.0589 |  | 0.0586 | 0.114 |  | 0.0576 |  | 
M219F | 0.12 |  | 0.082 | 0.0534 |  | 0.0549 | 0.123 | 0.11 |  |  | 0.117 | 0.0778 |  |  |  | 0.112 | 0.151 |  | 0.1 | 
E224Q | 0.13 | 0.0672 |  | 0.0722 | 0.0706 | 0.0723 | 0.0836 | 0.0756 |  | 0.0555 | 0.102 | 0.0726 | 0.0595 | 0.081 | 0.081 | 0.1 | 0.0844 | 0.0667 |  | 
